Laboratory results from PubChem BioAssay AID1794842 (National Center for Advancing Translational Sciences (NCATS), 2023).
The whole screen tested about 2,800 compounds, of which fewer than 10 were called active. The call rests on the fitted dose curve; in most records, active means well fitted curve in the direction sought with a large enough effect; inconclusive means small, poorly fitted or top-dose-only effect, or another doubt; inactive means no such curve, though single readings can be large or run the other way. Some of the results follow.

What follows are compounds tested against Metallo-beta-lactamase type 2 (Klebsiella pneumoniae) (UniProt C7C422) (assay: qHTS to identify inhibitors of the New Delhi Metallo-beta-lactamase (NDM): Meropenem screen against the machine-based learning selections.). Conditions: Purified NDM-1, meropenem hydrolysis, absorbance 300 nm; at 38.4 µM (top of the series) unless noted.
Chain of UniProt C7C422 (C7C422 whole entry, looked up): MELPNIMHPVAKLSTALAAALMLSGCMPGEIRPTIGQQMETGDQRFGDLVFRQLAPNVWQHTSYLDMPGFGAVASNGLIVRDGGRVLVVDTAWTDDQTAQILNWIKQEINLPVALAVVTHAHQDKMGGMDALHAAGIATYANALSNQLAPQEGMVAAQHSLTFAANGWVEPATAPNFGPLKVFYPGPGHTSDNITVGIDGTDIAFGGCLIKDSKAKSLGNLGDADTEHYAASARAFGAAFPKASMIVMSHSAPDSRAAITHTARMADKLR
Procedure, shortened: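 NDM-1 (2 nM final) in 50 mM HEPES pH 7.0, 1 uM Zn2SO4, 0.01% Tween20 was preincubated with compounds for >30 min. Nitrocefin (16.7 uM final) was read at 485 nm after 15 min, and meropenem (50 uM final) at 300 nm after 30 min.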
Further: % of control where 0% means no effect.

Activity change, negative = inhibition, inactive:
COc1ccc(CN2CCNc3cnc(Nc4ccccc4)cc3C2)cn1 15% [at 57.5 µM]
Cc1ccc(S(=O)(=O)N2CCCC(Cn3c(C)nc4cccnc43)C2)c(C)c1 (centres undefined) 1.73%
CNC(=O)c1cccc(-c2cnc(Nc3ccccc3)c3c2CCO3)c1 9.05% [at 57.5 µM]
CS(=O)(=O)NC1CCN(c2nc(-c3cccnc3)nc3c2CNC3)CC1 5.15%
O=C1NCCOCCN(C(=O)NCCc2ccccc2)[C@@H]2CCCC[C@H]12 -0.134%
Cc1ccc(-c2ccc3nnc(CNC(=O)Cc4cccc(F)c4)n3n2)cc1 2.42%
CC(C)NC(=O)C[C@@H]1CCNC[C@@H]1Cc1cc(CC2CCCCC2)on1 44.9% [at 57.5 µM]
Cn1cccc1C(=O)N1CC[C@H](CO)[C@H](NC(=O)C2CC2)C1 -0.0114%
Cc1cc(C)n(Cc2cccc(C(=O)N3CCC4(CC3)[C@H](O)C[C@@H]4O)c2)n1 0.758%
CN1[C@H](C(=O)O)C[C@H](C(=O)NCC(C)(C)CO)[C@@H]1c1cccc(F)c1F 53.2%
COc1ccc(C(=O)N2C[C@@H]3OCC(=O)N(Cc4nccn4C)[C@@H]3C2)cc1 0.225% [at 57.5 µM]
CNS(=O)(=O)c1ccc(CN2CC3(CCNCC3)CC2C(=O)O)cc1 (centres undefined) 37.2%
O=C1Nc2ccccc2CC12CCN(CC1CC1)CC2 -0.718% [at 57.5 µM]
CN1C[C@@H](NC(=O)C2CCCCC2)C[C@H]1c1nc(-c2ccc3c(c2)OCO3)no1 -1.6% [at 57.5 µM]
Cc1nn(-c2ccccn2)c(C)c1[C@@H]1C=C[C@@H](NC(=O)NC(C)C)C1 0.439% [at 57.5 µM]
COCCN1CCN(C[C@@H]2C=C(C)[C@H](Cc3nnc(-c4cccnc4)o3)C[C@H]2C(C)C)CC1 -0.367%
CN1[C@@H](CCC(=O)N2CCOCC2)CNC(=O)[C@@H]2[C@H]1CCN2Cc1cccs1 -1.84% [at 57.5 µM]
N#Cc1cccc(NC(=O)N2C[C@@H]3C[C@H](C2)c2ccc(-c4ccc(OC(F)(F)F)cc4)c(=O)n2C3)c1 0.423%
C=CCNC(=O)N1CCC(O)(c2csc(CN3CCc4ccccc4C3)n2)CC1 -1.62% [at 57.5 µM]
CN1CCN(Cc2nc(C3(O)CCN(C(=O)CC(C)(C)C)CC3)cs2)CC1 -2.04% [at 57.5 µM]
Cc1oc(C(O)c2cccc(O)c2)nc1C(=O)Nc1ccc2[nH]c(=O)oc2c1 (centres undefined) 6.13% [at 57.5 µM]
COc1ccc(OC)c(CNC(=O)Cc2cccn2-c2ccc(C)cc2)c1 -1.16%
NC(=O)c1cccc(-c2cc(-c3ccncc3)c3cncn3c2)c1 34.3% [at 57.5 µM]
O=C(NC1CCCc2c1[nH]c1ccc(F)cc21)c1ccncc1 (centres undefined) 2.2%
Cc1ncc2c(c1CNC(=O)c1ccc(OC(F)F)cc1)CCNC2 42.3%
Oc1ccccc1CNC1(Cc2cc(-c3ccccn3)on2)COC1 25.4% [at 57.5 µM]
CCc1nc2c(c(-c3ccc(Cl)cc3)n1)CCN(Cc1ccc(F)cc1)CC2 -1.49%
CS(=O)(=O)c1ccc(CN2C[C@@H]3C[C@H]2C(=O)N(Cc2ccc(OC(F)(F)F)cc2)c2ccccc2O3)cc1 2.69%
COc1ccccc1-c1ccc2ncc(Nc3cccc(N[S+](C)(=O)[O-])c3)n2n1 17.9% [at 57.5 µM]
CC(=O)Nc1ccc(S(=O)(=O)N[C@H]2CO[C@H]3[C@@H]2OC[C@@H]3Nc2nccc(-c3cccs3)n2)cc1 2.93%
NCCn1cc(C(=O)NCC(O)c2ccccc2C(F)(F)F)nn1 (centres undefined) -3.94%
COCCN1CCCC(c2[nH]ccc2C(=O)NCCc2nc3ccccc3[nH]2)C1 (centres undefined) -0.111%
NS(=O)(=O)c1ccsc1C(=O)N1CCCC2(CCNCC2)CC1 -2.03%
O=C1CC(C(=O)O)C2(CCN(c3cc(C4CC4)ncn3)CC2)N1 (centres undefined) 4.66%
O=C(c1ccccc1)N1CCNc2cnc(Nc3cccc(F)c3)nc2C1 10.3% [at 57.5 µM]
COc1ccc(-n2nc(C)c([C@@H]3C=C[C@@H](NC(=S)NCC(C)C)C3)c2C)cc1 0.945% [at 57.5 µM]
O=C(Nc1ccc([C@H]2OCC(=O)N(C3CCOCC3)[C@@H]2CO)cc1)c1ccc(C(F)(F)F)cc1 6.59%
CCOc1cc(CN(C)C(=O)CC2C(=O)NCCN2Cc2ccccc2)ccc1OC (centres undefined) 3.61%
CCOCCN1C(=O)COC[C@@H]1[C@H](O)c1ccc(NC(C)=O)cc1 0.642% [at 57.5 µM]
CSCC(=O)N1C[C@@H](NC(=O)Nc2ccc(F)cc2F)C[C@H]1C(=O)N[C@H](Cc1ccccc1)C(N)=O 2.29%
Cn1ccc(NC(=O)c2cnc3c(c2)N([S+](=O)([O-])c2cccnc2)CCC3)n1 3.56% [at 57.5 µM]
O=C(O)CCC(=O)N1Cc2[nH]cnc2C[C@H]1C(=O)NC1CCCCC1 13% [at 57.5 µM]
NS(=O)(=O)CCCC(=O)N1CCC(Cc2cccc(C(=O)O)c2)C1 (centres undefined) -0.193%
Nc1ncc(-c2ccc(-c3cc(NC4CCCC4)nc4[nH]ccc34)cc2)[nH]1 21.1%
CCC(=O)N1CCC(Cc2nc(-c3ccccc3)n[nH]2)CC1 0.766%
COc1ccc(C(=O)N2CCn3c(nn(-c4ccc([N+](=O)[O-])cc4)c3=O)C2)cc1 3.83%
COc1cccc(CN2CCNc3cc(Nc4cccnc4)ncc3C2)c1 6.92% [at 57.5 µM]
O=C(Nc1ccc(Oc2ccccc2)cc1)O[C@@H]1CO[C@H]2[C@@H]1OC[C@@H]2NS(=O)(=O)c1ccc(Cl)cc1 4.54%
CC(C)(C)c1ccc(C(=O)N2CCCC(O)(CN3CCCC3)C2)cc1 (centres undefined) 3.12%
